Source: the supplement of paper PMC4723716
In all, about 3,600 compounds were measured (“viability index relative to DMSO control”: median about 0.81, lowest 2% from about 0.13 on). The list shows a part of the results.

Test system: Plasmodium falciparum NF54 stage V gametocytes
Assay: viability index relative to DMSO control (fraction); higher = less gametocyte killing
Settings: 1.25 µM, incubation time: 72 h
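Note: 384-well serum-free SaLSSA: MitoTracker Red CMXRos staining with saponin lysis, high-content imaging, treated-well particle count divided by plate-mean count of DMSO wells.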

SMILES	viability index
CC(=O)c1ccc(-n2cc(C(=O)C(C)Oc3ccc(Cl)cc3Cl)nn2)cc1 (stereo not given)	1.2
O=C(NCc1ccccc1C(F)(F)F)C1CC(O)CN1C(=O)Nc1ccccc1 (stereo not given)	0.964
CCN(CC)CCN(Cc1cc2cc(OC)ccc2[nH]c1=O)C(=S)Nc1ccc(F)cc1	0.674
CC(=O)N1c2ccccc2CC1C(=O)NCc1cccc(Cl)c1 (stereo not given)	1.02
COc1ccccc1C1CC(=O)N2CN(Cc3ccccc3)CSC2=C1C#N (stereo not given)	0.815
COc1ccccc1C(c1nnnn1Cc1ccc(F)cc1)N1CCN(C)CC1 (stereo not given)	1.01
O=C(Cc1ccsc1)N1CCOc2c(cc(-c3csc4ccccc34)cc2OCCc2ccccn2)C1	0.394
Cc1ccc(Cl)cc1N1CCN(S(=O)(=O)c2ccc3c(c2)oc(=O)n3C)CC1	1.07
COC(=O)c1sc2nc(CN3CCC(C)CC3)ccc2c1NC(=O)c1ccc(C)s1	0.981
O=C(CCl)NCCNc1ncc(C(F)(F)F)cc1Cl	0.564
COc1ccc(-c2c[n+](Cc3ccccc3Cl)c3n2CCC3)cc1	0.857
CCN1C(=O)N(CC)C(NNC(N)=S)C1NNC(N)=S (stereo not given)	0.173
CN(C)c1ccc(-c2n(C)c3ccccc3[n+]2C)cc1	1.05
CC(C)CN1C(=O)c2ccccc2C(C(=O)Nc2ccccn2)C1c1cccs1 (stereo not given)	0.534
CC[N+]1(CCOc2ccc(C34CC5CC(CC(C5)C3)C4)cc2)CCCCC1	0.601
O=[N+]([O-])c1ccc(NCCNc2nc(N3CCCC3)nc3ccccc23)cc1	0.776
COc1ccc(NC(=O)C2c3ccccc3C(=O)N(CC(C)C)C2c2cccs2)cc1Cl (stereo not given)	0.104
O=C(C=Cc1ccccc1Cl)Nc1ccc(Oc2ccc3ccccc3c2Cl)c(Cl)c1	0.763
Cc1nc(-c2ccccc2)nc(C(=O)N2CCN(C(=O)NC3CCCCC3)C(C)C2)c1C(=O)OC(C)C (stereo not given)	0.488
COc1ccc(C(=O)NC(c2ccc(C)cc2)c2cc(Cl)c3cccnc3c2O)cc1 (stereo not given)	0.726
CCCNC(=O)N1CCC2(CC1)CC(=O)c1cc(C)ccc1O2	0.929
CC(=O)CSc1nnc(-c2ccncc2)n1C	0.717
Cc1ccc(NC(C)C(=O)Nc2ccc(C#N)cc2)cc1S(=O)(=O)N1CCCCC1 (stereo not given)	1.21
COc1ccc(-n2nc(C(=O)NCC(=O)NCCCN3CC(C)CC(C)C3)c3ccccc3c2=O)cc1Cl (stereo not given)	0.988
CCOc1ccccc1-n1c(N)c(C(=O)Nc2ccc(C)cc2)sc1=S	1.3
